# Some of the results follow.
# B1: SSL (Salmo salar) (protein)
# chain: TGAKGAEEGVVPAETRNQCPTGWFQFGSRCFMFVETARSWPLAERHCVSLGANLASVHSSADDQFLQAIAGCKTGAFSTTWIGGFDAVQDRLWFWSDGSEFDYQNWAKGEPNNSGGREPCIVINWGDEYRWNDIKCGNSFPSVCSKRICEIQKN
# Key:
# Assay in all cases: glycan array binding signal (z-score within array); higher = stronger binding
# Details in all cases: glycan notation: IUPAC condensed, linker removed
# [1] = target: Neu5Ac(a2-3)Gal6S(b1-4)[Fuc(a1-3)]GlcNAc
# Procedure, shortened: (§1)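 Glycan array data were curated from 3228 arrays in the Consortium for Functional Glycomics database and kept only where the protein sequence was available. Glycan names were converted to IUPAC-condensed notation, and columns mapping to the same glycan were averaged. The binding signal is a within-array Z-score, averaged across arrays of the same protein sequence at different concentrations or buffers and across linkers. Negative Z-scores can be read as non-binding.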
# Neu5Ac(a2-3)GalNAc = target: Neu5Ac(a2-3)GalNAc
# Procedure, shortened: as §1
# [2] = target: Neu5Ac(a2-3)GalNAc(b1-4)GlcNAc
# Procedure, shortened: as §1
# [3] = target: Neu5Ac(a2-3)[GalNAc(b1-4)]Gal(b1-4)Glc
# Procedure, shortened: as §1
# [4] = target: Neu5Ac(a2-3)[GalNAc(b1-4)]Gal(b1-4)GlcNAc
# Procedure, shortened: as §1
# [5] = target: Neu5Ac(a2-3)[GalNAc(b1-4)]Gal(b1-4)GlcNAc(b1-3)GalNAc
# Procedure, shortened: as §1
# [6] = target: Neu5Ac(a2-3)[Neu5Ac(a2-6)]GalNAc
# Procedure, shortened: as §1
# Neu5Ac(a2-6)Gal = target: Neu5Ac(a2-6)Gal
# Procedure, shortened: as §1
# Neu5Ac(a2-6)Gal(b1-4)Glc = target: Neu5Ac(a2-6)Gal(b1-4)Glc
# Procedure, shortened: as §1
# [7] = target: Neu5Ac(a2-6)Gal(b1-4)GlcNAc
# Procedure, shortened: as §1
# [8] = target: Neu5Ac(a2-6)Gal(b1-4)GlcNAc(b1-2)Man(a1-3)Man(b1-4)GlcNAc(b1-4)GlcNAc
# Procedure, shortened: as §1
# [9] = target: Neu5Ac(a2-6)Gal(b1-4)GlcNAc(b1-2)Man(a1-3)[Gal(b1-4)GlcNAc(b1-2)Man(a1-6)]Man(b1-4)GlcNAc(b1-4)GlcNAc
# Procedure, shortened: as §1
# [10] = target: Neu5Ac(a2-6)Gal(b1-4)GlcNAc(b1-2)Man(a1-3)[GlcNAc(b1-2)Man(a1-6)]Man(b1-4)GlcNAc(b1-4)GlcNAc
# Procedure, shortened: as §1
# [11] = target: Neu5Ac(a2-6)Gal(b1-4)GlcNAc(b1-2)Man(a1-3)[GlcNAc(b1-2)Man(b1-4)GlcNAc(b1-2)Man(a1-6)]Man(b1-4)GlcNAc(b1-4)GlcNAc
# Procedure, shortened: as §1
# [12] = target: Neu5Ac(a2-6)Gal(b1-4)GlcNAc(b1-2)Man(a1-3)[Man(a1-6)]Man(b1-4)GlcNAc(b1-4)GlcNAc
# Procedure, shortened: as §1
# [13] = target: Neu5Ac(a2-6)Gal(b1-4)GlcNAc(b1-2)Man(a1-3)[Neu5Ac(a2-6)Gal(b1-4)GlcNAc(b1-2)Man(a1-6)]Man(b1-4)GlcNAc(b1-4)GlcNAc
# Procedure, shortened: as §1
# [14] = target: Neu5Ac(a2-6)Gal(b1-4)GlcNAc(b1-2)Man(a1-6)Man(b1-4)GlcNAc(b1-4)GlcNAc
# Procedure, shortened: as §1
# [15] = target: Neu5Ac(a2-6)Gal(b1-4)GlcNAc(b1-2)Man(a1-6)[Gal(b1-4)GlcNAc(b1-2)Man(a1-3)]Man(b1-4)GlcNAc(b1-4)GlcNAc
# Procedure, shortened: as §1
# [16] = target: Neu5Ac(a2-6)Gal(b1-4)GlcNAc(b1-2)Man(a1-6)[GlcNAc(b1-2)Man(a1-3)]Man(b1-4)GlcNAc(b1-4)GlcNAc
# Procedure, shortened: as §1
# [17] = target: Neu5Ac(a2-6)Gal(b1-4)GlcNAc(b1-2)Man(a1-6)[Man(a1-3)]Man(b1-4)GlcNAc(b1-4)GlcNAc
# Procedure, shortened: as §1
# [18] = target: Neu5Ac(a2-6)Gal(b1-4)GlcNAc(b1-3)Gal(b1-3)GlcNAc
# Procedure, shortened: as §1
# [19] = target: Neu5Ac(a2-6)Gal(b1-4)GlcNAc(b1-3)Gal(b1-4)GlcNAc
# Procedure, shortened: as §1
# [20] = target: Neu5Ac(a2-6)Gal(b1-4)GlcNAc(b1-3)Gal(b1-4)GlcNAc(b1-3)Gal(b1-4)GlcNAc
# Procedure, shortened: as §1
# [21] = target: Neu5Ac(a2-6)Gal(b1-4)GlcNAc(b1-3)Gal(b1-4)[Fuc(a1-3)]GlcNAc(b1-3)Gal(b1-4)[Fuc(a1-3)]GlcNAc
# Procedure, shortened: as §1
# [22] = target: Neu5Ac(a2-6)Gal(b1-4)GlcNAc(b1-3)GalNAc
# Procedure, shortened: as §1
# [23] = target: Neu5Ac(a2-6)Gal(b1-4)GlcNAc6S
# Procedure, shortened: as §1
# Neu5Ac(a2-6)GalNAc = target: Neu5Ac(a2-6)GalNAc
# Procedure, shortened: as §1
# [24] = target: Neu5Ac(a2-6)GalNAc(b1-4)GlcNAc
# Procedure, shortened: as §1
# [25] = target: Neu5Ac(a2-6)GlcNAc(b1-4)GlcNAc
# Procedure, shortened: as §1
# [26] = target: Neu5Ac(a2-6)GlcNAc(b1-4)GlcNAc(b1-4)GlcNAc
# Procedure, shortened: as §1
# Neu5Ac(a2-8)Neu5Ac = target: Neu5Ac(a2-8)Neu5Ac
# Procedure, shortened: as §1
# [27] = target: Neu5Ac(a2-8)Neu5Ac(a2-3)Gal(b1-4)Glc
# Procedure, shortened: as §1
# [28] = target: Neu5Ac(a2-8)Neu5Ac(a2-3)[GalNAc(b1-4)]Gal(b1-4)Glc
# Procedure, shortened: as §1
# [29] = target: Neu5Ac(a2-8)Neu5Ac(a2-8)Neu5Ac
# Procedure, shortened: as §1
# [30] = target: Neu5Ac(a2-8)Neu5Ac(a2-8)Neu5Ac(a2-3)Gal(b1-4)Glc
# Procedure, shortened: as §1
# [31] = target: Neu5Ac(a2-8)Neu5Ac(a2-8)Neu5Ac(a2-3)[GalNAc(b1-4)]Gal(b1-4)Glc
# Procedure, shortened: as §1
# [32] = target: Neu5Ac(a2-8)Neu5Ac(a2-8)Neu5Ac(a2-8)Neu5Ac(a2-3)[GalNAc(b1-4)]Gal(b1-4)Glc
# Procedure, shortened: as §1
# [33] = target: Neu5Ac(b2-6)Gal(b1-4)GlcNAc
# Procedure, shortened: as §1
# Neu5Ac(b2-6)GalNAc = target: Neu5Ac(b2-6)GalNAc
# Procedure, shortened: as §1
# [34] = target: Neu5Ac9Ac(a2-3)Gal(b1-3)GlcNAc
# Procedure, shortened: as §1
# [35] = target: Neu5Ac9Ac(a2-3)Gal(b1-4)GlcNAc
# Procedure, shortened: as §1
# [36] = target: Neu5Ac9Ac(a2-6)Gal(b1-4)GlcNAc
# Procedure, shortened: as §1
# [37] = target: Neu5Gc(a2-3)Gal(b1-3)GlcNAc
# Procedure, shortened: as §1
# [38] = target: Neu5Gc(a2-3)Gal(b1-3)[Fuc(a1-4)]GlcNAc
# Procedure, shortened: as §1
# Neu5Gc(a2-3)Gal(b1-4)Glc = target: Neu5Gc(a2-3)Gal(b1-4)Glc
# Procedure, shortened: as §1
# [39] = target: Neu5Gc(a2-3)Gal(b1-4)GlcNAc
# Procedure, shortened: as §1
# [40] = target: Neu5Gc(a2-3)Gal(b1-4)[Fuc(a1-3)]GlcNAc
# Procedure, shortened: as §1
# [41] = target: Neu5Gc(a2-6)Gal(b1-4)GlcNAc
# Procedure, shortened: as §1
# Neu5Gc(a2-6)GalNAc = target: Neu5Gc(a2-6)GalNAc
# Procedure, shortened: as §1
# [42] = target: Neu5Gc(b2-6)Gal(b1-4)GlcNAc
# Procedure, shortened: as §1
binder,measurement,setting,value
B1,glycan array binding signal (z-score),[1],-0.176
same,glycan array binding signal (z-score),Neu5Ac(a2-3)GalNAc,-0.17
same,glycan array binding signal (z-score),[2],-0.178
same,glycan array binding signal (z-score),[3],-0.172
same,glycan array binding signal (z-score),[4],-0.172
same,glycan array binding signal (z-score),[5],-0.119
same,glycan array binding signal (z-score),[6],-0.182
same,glycan array binding signal (z-score),Neu5Ac(a2-6)Gal,-0.144
same,glycan array binding signal (z-score),Neu5Ac(a2-6)Gal(b1-4)Glc,-0.158
same,glycan array binding signal (z-score),[7],-0.172
same,glycan array binding signal (z-score),[8],-0.178
same,glycan array binding signal (z-score),[9],-0.177
same,glycan array binding signal (z-score),[10],-0.18
same,glycan array binding signal (z-score),[11],-0.182
same,glycan array binding signal (z-score),[12],-0.181
same,glycan array binding signal (z-score),[13],-0.173
same,glycan array binding signal (z-score),[14],-0.176
same,glycan array binding signal (z-score),[15],-0.176
same,glycan array binding signal (z-score),[16],-0.176
same,glycan array binding signal (z-score),[17],-0.177
same,glycan array binding signal (z-score),[18],-0.171
same,glycan array binding signal (z-score),[19],-0.179
same,glycan array binding signal (z-score),[20],-0.182
same,glycan array binding signal (z-score),[21],-0.144
same,glycan array binding signal (z-score),[22],-0.162
same,glycan array binding signal (z-score),[23],-0.181
same,glycan array binding signal (z-score),Neu5Ac(a2-6)GalNAc,-0.18
same,glycan array binding signal (z-score),[24],-0.18
same,glycan array binding signal (z-score),[25],0.202
same,glycan array binding signal (z-score),[26],-0.186
same,glycan array binding signal (z-score),Neu5Ac(a2-8)Neu5Ac,-0.18
same,glycan array binding signal (z-score),[27],-0.177
same,glycan array binding signal (z-score),[28],-0.162
same,glycan array binding signal (z-score),[29],-0.181
same,glycan array binding signal (z-score),[30],-0.179
same,glycan array binding signal (z-score),[31],-0.181
same,glycan array binding signal (z-score),[32],-0.176
same,glycan array binding signal (z-score),[33],-0.18
same,glycan array binding signal (z-score),Neu5Ac(b2-6)GalNAc,-0.177
same,glycan array binding signal (z-score),[34],-0.178
same,glycan array binding signal (z-score),[35],-0.178
same,glycan array binding signal (z-score),[36],-0.185
same,glycan array binding signal (z-score),[37],-0.152
same,glycan array binding signal (z-score),[38],-0.176
same,glycan array binding signal (z-score),Neu5Gc(a2-3)Gal(b1-4)Glc,-0.17
same,glycan array binding signal (z-score),[39],-0.171
same,glycan array binding signal (z-score),[40],-0.154
same,glycan array binding signal (z-score),[41],-0.172
same,glycan array binding signal (z-score),Neu5Gc(a2-6)GalNAc,-0.166
same,glycan array binding signal (z-score),[42],-0.172
